Experimental data taken from PubChem BioAssay AID463173 (ICCB-Longwood Screening Facility, Harvard Medical School, 2010).
Out of some 52,000 compounds screened, about 1,700 (3.3%) were called active. No stated cut-off is given here; in the data, active means survival mostly below about 52% (no sharp cut-off); inactive means mostly above about 56%. Some of the results follow.

The compounds below were run on Wild type (assay: growth inhibition of S. aureus wild type versus tarO mutant, primary screen, teichoic acid synthesis inhibitors, RN4220, OD600 (AID 463173)). Details: S. aureus RN4220 wild type/DeltatarO growth, OD600, 18 h, hits give low values, screened at 18.75 µg/mL (by protocol).

Question: Which survival does the source give for `COc1ccccc1NC(=O)NCCCN1CCN(c2ccc(F)cc2)CC1` here?
Answer: inactive: 72%

Question: `O=C(c1cnn(-c2cccc(F)c2)c1-n1cccc1)N1CCN(c2ccccc2F)CC1` was tested. Which survival did it give?
Answer: inactive: 78%

Question: `CC1(C)CC2(CC(C)(C)NC(=O)N2)NC(=O)N1` was tested. Which survival did it give?
Answer: inactive: 101%

Question: How did the survival turn out when `Cc1c(C)n(Cc2ccccc2)c2ccc(C(=O)NCc3ccccc3F)cc12` was run?
Answer: inactive: 69%

Question: Which survival does the source give for `COc1ccc(-n2nc3c(N4CCC(C(=O)NCc5cccc(F)c5)CC4)nnc(C)c3c2C)cc1` here?
Answer: inactive: 68%

Question: For `CC(=O)c1cccc(NC(=O)CN2C(=O)c3ccccc3Sc3ncccc32)c1`, which survival is on record?
Answer: inactive: 89%

Question: `CCCN1CCN(CCCNC(=O)c2ccc3c(c2)sc2nc(-c4ccc(OC)cc4)cn23)CC1` was tested. Which survival did it give?
Answer: inactive: 81%

Question: With `COc1ccc(C(=O)Nc2cccc(-c3cn4ccsc4n3)c2)cc1OC` as the compound, how does the survival read?
Answer: inactive: 76%

Question: For `Cc1ccccc1OCc1nnc(SCC(=O)Nc2sc(C)c(C)c2C#N)n1-c1ccccc1`, which survival is on record?
Answer: inactive: 112%

Question: With `CC1=C(C(=O)NCc2ccccc2Cl)C2(CCCCCC2)OC1=O` as the compound, how does the survival read?
Answer: inactive: 22%

Question: `Cc1ccc2c(CNCC(C)c3ccccc3)c(C(=O)O)n(Cc3ccccc3C)c2c1` (centres undefined) was tested. Which survival did it give?
Answer: inactive: 81%

Question: With `Cn1c(SCC(=O)N2CCOCC2)ncc(C(=O)Nc2ccccc2)c1=O` as the compound, how does the survival read?
Answer: inactive: 88%

Question: How did the survival turn out when `Cc1ccccc1Cn1c(CN2CCC(C(=O)NCc3cccnc3)CC2)cc2ccccc21` was run?
Answer: inactive: 77%

Question: `CCOC(=O)C1CCN(C(=O)Cn2nc(C)n3c(cc4sccc43)c2=O)CC1` was tested. Which survival did it give?
Answer: inactive: 85%

Question: How did the survival turn out when `COc1ccc(NS(=O)(=O)c2ccc3c(c2)C(C(C)C)C(=O)N3)cc1` (centres undefined) was run?
Answer: inactive: 70%

Question: `CCc1nn(CC(=O)NCCC(C)C)c(=O)c2cc3occc3n12` was tested. Which survival did it give?
Answer: inactive: 121%

Question: How did the survival turn out when `CCn1c(C)c(C2N3CC4(C)CN2CC(CC)(C3)C4=O)c2ccccc21` (centres undefined) was run?
Answer: inactive: 117%

Question: Which survival does the source give for `Nc1c(C(=O)Nc2ccccc2Cl)c2ccccn2c1C(=O)c1ccc(Cl)cc1` here?
Answer: inactive: 99%

Question: `COc1ccc(NC(=O)CSc2nc3c([nH]c4ccccc43)c(=O)n2C)cc1` was tested. Which survival did it give?
Answer: inactive: 76%

Question: For `Cc1ccc(CNC(=O)CSc2ncc(S(=O)(=O)c3ccc(Br)cc3)c(=O)[nH]2)cc1`, which survival is on record?
Answer: inactive: 136%

Question: How did the survival turn out when `COC(=O)c1sccc1S(=O)(=O)N(CC(=O)NCc1ccccc1)c1ccccc1` was run?
Answer: inactive: 65%

Question: Which survival does the source give for `Cc1ccc(CNC(=O)C(=O)NCC(c2cccs2)S(=O)(=O)c2ccc(C)cc2)cc1` (centres undefined) here?
Answer: inactive: 120%

Question: With `Cc1c(C(=O)N2CCC(C)CC2)c(S(=O)(=O)NCc2ccccc2)c(C)n1C` as the compound, how does the survival read?
Answer: inactive: 53%

Question: How did the survival turn out when `COc1cccc(CC(=O)Nc2ccc3nc(N4CCC(C)CC4)cc(C)c3c2)c1` was run?
Answer: inactive: 65%

Question: For `c1ccc(NCc2ccncc2)cc1`, which survival is on record?
Answer: inactive: 105%

Question: Which survival does the source give for `Cc1nn(C(=O)c2ccccc2F)c(C)c1S(=O)(=O)N1CCOCC1` here?
Answer: inactive: 66%

Question: For `COc1ccc(Nc2ncnc3c2cnn3-c2ccc(C)cc2C)cc1`, which survival is on record?
Answer: inactive: 92%

Question: Which survival does the source give for `Nc1cnn(C2CCCO2)c(=O)n1` (centres undefined) here?
Answer: inactive: 106%

Question: Which survival does the source give for `O=C(CN1CCCC1)N/N=C/c1ccc(-c2cccc(Cl)c2Cl)o1` here?
Answer: inactive: 109%

Question: For `COc1ccccc1C(=O)Nc1ccc2nc(N3CCC(C)CC3)cc(C)c2c1`, which survival is on record?
Answer: active: 0%

Question: `Cc1ccc(S(=O)(=O)Nc2cccc(C)c2)cc1` was tested. Which survival did it give?
Answer: inactive: 120%

Question: How did the survival turn out when `CC(=O)c1cccc(NC(=O)Cn2c(=O)c(CNc3ccc(C)cc3)cc3cc4c(cc32)OCCO4)c1` was run?
Answer: inactive: 77%

Question: For `CCOc1ccccc1NS(=O)(=O)c1c(C)nc2sccn2c1=O`, which survival is on record?
Answer: inactive: 79%

Question: `CCn1c(=O)c2cc(C(=O)N(CCCOC(C)C)Cc3ccco3)sc2c2ccccc21` was tested. Which survival did it give?
Answer: active: 1%

Question: Which survival does the source give for `Cc1cc(C)c(NC(=O)Cn2c(SCC(=O)NCc3ccccc3)nc3ccccc32)c(C)c1` here?
Answer: inactive: 75%

Question: How did the survival turn out when `Cc1ccc(-c2sc(C(=O)Nc3ccc(Br)cc3)cc2CC(=O)O)cc1` was run?
Answer: inactive: 67%

Question: `O=C(Cn1nnc(-c2cccs2)n1)NC1CC1` was tested. Which survival did it give?
Answer: inactive: 100%

Question: `CCC(=O)NC1CCC(c2ccccc2)CC1` (centres undefined) was tested. Which survival did it give?
Answer: inactive: 109%

Question: `COc1cccc(CNC(=O)C2CCN(S(=O)(=O)c3ccc4c(ccn4C)c3)CC2)c1` was tested. Which survival did it give?
Answer: inactive: 55%

Question: How did the survival turn out when `COc1ccc(-c2cn3cccnc3n2)cc1NC(=O)c1c(F)cccc1F` was run?
Answer: inactive: 70%

Question: How did the survival turn out when `CSc1ccc(C2c3[nH]c4ccccc4c3CCN2C(=O)CCc2ccccc2)cc1` (centres undefined) was run?
Answer: inactive: 85%

Question: Which survival does the source give for `COc1cc(Cl)c(C)cc1NC(=O)CCn1c(=O)c2cccn2c2cccnc21` here?
Answer: inactive: 92%

Question: With `CC(C)c1nc2ccc(C(=O)NCc3ccc(N(C)C)cc3)cc2o1` as the compound, how does the survival read?
Answer: inactive: 77%

Question: Which survival does the source give for `CCOC(=O)N1CCN(c2ncnc3c2cnn3-c2ccccc2)CC1` here?
Answer: inactive: 112%

Question: `Cc1ccc(-n2nc3c(=O)n(CCCC(=O)NCCc4ccccc4)nc(C)c3c2C)cc1` was tested. Which survival did it give?
Answer: inactive: 121%

Question: With `Cc1cccc(CCNC(=O)CCS(=O)(=O)c2cc3c(cc2Cl)NC(=O)CO3)c1` as the compound, how does the survival read?
Answer: inactive: 99%

Question: With `COc1ccc(C)cc1Nc1nc2ccccc2c2nnc(C)n12` as the compound, how does the survival read?
Answer: inactive: 125%

Question: `Cc1cccc(NC(=O)CSc2nc3c(oc4ccccc43)c(=O)n2Cc2ccco2)c1` was tested. Which survival did it give?
Answer: inactive: 75%

Question: How did the survival turn out when `CCOc1ccc(CNC(=O)CCC(=O)N2CC3CCCN3c3ccccc32)cc1` (centres undefined) was run?
Answer: inactive: 101%

Question: For `CCN1CCN(C(c2cccc(F)c2)c2c(O)cc(C)n(CCOC)c2=O)CC1` (centres undefined), which survival is on record?
Answer: inactive: 89%

Question: `COc1ccc(Cl)cc1NC(=O)c1cc(S(=O)(=O)N2CCC(C)CC2)cn1C` was tested. Which survival did it give?
Answer: inactive: 84%

Question: Which survival does the source give for `CCc1nc2cccnc2n1-c1ccc(CC(=O)Nc2ccccc2Cl)cc1` here?
Answer: inactive: 74%

Question: With `COc1ccccc1-c1noc(CSc2nnc(Cc3ccccc3)n2-c2ccc(C)c(C)c2)n1` as the compound, how does the survival read?
Answer: inactive: 57%

Question: How did the survival turn out when `Cc1ccc(C)n1-c1nnc(N2CCC(C(=O)NCc3ccc(F)cc3)CC2)s1` was run?
Answer: inactive: 88%

Question: How did the survival turn out when `CN(C)c1nc2ccc(OCCN3CCCCC3)cc2s1` was run?
Answer: inactive: 109%

Question: For `CC(C)C(=O)Nc1ccc2nc(SCC(=O)N3CCOCC3)sc2c1`, which survival is on record?
Answer: inactive: 88%

Question: `Cc1cc(NS(=O)(=O)c2ccc3nc(-c4ccccc4)[nH]c3c2)ccc1Br` was tested. Which survival did it give?
Answer: active: -4%

Question: How did the survival turn out when `Cc1ccc(N2CC(c3nnc(NC(=O)c4ccco4)s3)CC2=O)cc1Cl` (centres undefined) was run?
Answer: inactive: 88%

Question: Which survival does the source give for `CCn1c(NCc2ccccc2)nc2ccccc21` here?
Answer: inactive: 109%
